The values that follow come from PMC4336329 (PLoS ONE, 2015).

In all, about 310,000 compounds went through this assay and about 14,000 (4.5%) showed an effect of 50% or more. The effect is printed as a negative number. Some of the results follow.
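Also: peak tail current of the secondary pulse compared with the same well before compound.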

For this test, the target named is human ether-à-go-go-related gene (hERG) potassium channel (human, UniProt Q12809). Kind of test: primary screen, population patch clamp on CHO cells stably expressing hERG.
human ether-à-go-go-related gene (hERG) potassium channel, sequence (Q12809 whole entry, looked up): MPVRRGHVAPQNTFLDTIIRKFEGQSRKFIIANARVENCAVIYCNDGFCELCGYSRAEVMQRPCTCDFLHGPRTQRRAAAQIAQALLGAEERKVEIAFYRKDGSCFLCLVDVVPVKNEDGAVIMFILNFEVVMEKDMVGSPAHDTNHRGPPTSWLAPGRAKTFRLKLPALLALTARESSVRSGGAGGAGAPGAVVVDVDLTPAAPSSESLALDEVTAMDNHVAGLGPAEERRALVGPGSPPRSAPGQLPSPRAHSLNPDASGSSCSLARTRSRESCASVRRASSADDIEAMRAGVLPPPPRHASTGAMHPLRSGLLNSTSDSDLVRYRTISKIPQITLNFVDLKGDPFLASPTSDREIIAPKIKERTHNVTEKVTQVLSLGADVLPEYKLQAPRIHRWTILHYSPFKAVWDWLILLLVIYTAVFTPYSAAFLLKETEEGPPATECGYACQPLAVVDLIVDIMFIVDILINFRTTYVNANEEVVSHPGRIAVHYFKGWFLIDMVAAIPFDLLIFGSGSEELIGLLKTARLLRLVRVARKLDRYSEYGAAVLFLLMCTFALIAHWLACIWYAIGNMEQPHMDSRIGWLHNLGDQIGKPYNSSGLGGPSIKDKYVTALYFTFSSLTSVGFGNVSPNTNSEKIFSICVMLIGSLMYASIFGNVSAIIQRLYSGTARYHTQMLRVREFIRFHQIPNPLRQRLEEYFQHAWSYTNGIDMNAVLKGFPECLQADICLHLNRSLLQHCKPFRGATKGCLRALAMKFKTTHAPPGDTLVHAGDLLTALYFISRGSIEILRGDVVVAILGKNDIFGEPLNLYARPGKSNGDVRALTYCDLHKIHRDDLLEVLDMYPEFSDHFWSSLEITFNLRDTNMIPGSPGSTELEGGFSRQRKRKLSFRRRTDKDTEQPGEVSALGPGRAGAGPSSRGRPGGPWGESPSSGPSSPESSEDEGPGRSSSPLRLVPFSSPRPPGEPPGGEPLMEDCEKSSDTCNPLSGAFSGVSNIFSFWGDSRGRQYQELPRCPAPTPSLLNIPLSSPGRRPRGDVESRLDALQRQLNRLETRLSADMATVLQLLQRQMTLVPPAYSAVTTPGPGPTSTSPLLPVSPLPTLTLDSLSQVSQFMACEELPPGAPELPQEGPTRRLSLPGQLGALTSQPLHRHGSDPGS
`COc1cc2c(cc1NC(=O)COCC(=O)O)oc1ccccc12`: the “hERG current change (%, negative = inhibition) at 10uM” value is recorded as -4.88%.

With `O=C(CN1CCN(S(=O)(=O)N2CCOCC2)CC1)Nc1ccc(Cl)c(Cl)c1`, the “hERG current change (%, negative = inhibition) at 10uM” value is recorded as -49.3%.

On to `CCCCn1nnc(NC(=S)NC(=O)c2ccc(-c3cccc(Cl)c3Cl)o2)n1`, for which the “hERG current change (%, negative = inhibition) at 10uM” value was 9.41%.

`CCn1c(SCC(=O)Nc2nc(C)cs2)nnc1C(NC(=O)c1ccccc1Cl)C(C)C` (centres unmarked): the “hERG current change (%, negative = inhibition) at 10uM” value was -3.6%.

Regarding `Cc1ccc(CNC(=O)CN(C)S(=O)(=O)c2cnc[nH]2)cc1`, the “hERG current change (%, negative = inhibition) at 10uM” value was 3.35%.

For the molecule `Cc1nc(SCC(=O)c2ccc(F)c(F)c2)[nH]c(=O)c1Oc1ccc(Cl)cc1`, the “hERG current change (%, negative = inhibition) at 10uM” value is reported as -1.12%.

In the case of `Cc1ccc(NC(=O)CSc2nnnn2-c2cccnc2)c(C)c1`, the “hERG current change (%, negative = inhibition) at 10uM” value was determined as 11.3%.

Take `COc1ccc(CNc2nc3nc(C)c(Cl)c(C)n3n2)cc1OC`: the “hERG current change (%, negative = inhibition) at 10uM” value is -7.54%.

On to `O=c1c(-c2ccc([N+](=O)[O-])cc2)coc2c(O)c(O)ccc12`, for which the “hERG current change (%, negative = inhibition) at 10uM” value is recorded as 25.8%.

In the case of `OC1CSc2nc3ccccc3n2C1` (centres unmarked), the “hERG current change (%, negative = inhibition) at 10uM” value worked out at 37%.

Take `O=C(NCc1ccncc1)c1cncc(Br)c1`: the “hERG current change (%, negative = inhibition) at 10uM” value is listed as 10.1%.

For the molecule `COc1ccc(NC(=O)C(C)N2C(=O)c3ccccc3S2(=O)=O)c(OC)c1` (centres unmarked), the “hERG current change (%, negative = inhibition) at 10uM” value is recorded as -9.44%.

Consider `COc1ccc(S(=O)(=O)N2CCC(C(=O)NCc3ccncc3)CC2)cc1Cl`, for which the “hERG current change (%, negative = inhibition) at 10uM” value amounted to 5.93%.

Take `Cl.Clc1ccc(OCCCN2CCc3ccccc3C2)c(Br)c1`: the “hERG current change (%, negative = inhibition) at 10uM” value was -34.8%.

As for `CCOCCCn1c(=NC(=O)c2cccs2)c(C#N)cc2c(=O)n3cccc(C)c3nc21`, the “hERG current change (%, negative = inhibition) at 10uM” value is -74.1%.

As for `CCOC(=O)N1CCC(NS(=O)(=O)c2cc3c(cc2C)NC(=O)CO3)CC1`, the “hERG current change (%, negative = inhibition) at 10uM” value is listed as -7.84%.

Consider `COc1ccc(CNC(=O)C2CCN(S(=O)(=O)N3CCCC3)CC2)cc1`, for which the “hERG current change (%, negative = inhibition) at 10uM” value is on record as 11.4%.

On to `COc1ccc(OC)c(NC(=O)CC2(CC(=O)O)CCCC2)c1`, for which the “hERG current change (%, negative = inhibition) at 10uM” value was determined as 1.81%.

As for `CCS(=O)(=O)N1Cc2ccccc2CC1C(=O)Nc1cc(S(C)(=O)=O)ccc1Cl` (centres unmarked), the “hERG current change (%, negative = inhibition) at 10uM” value was found to be 6.67%.

Take `O=C(NCc1cccnc1)/C(=C\c1ccc(-c2cccc(Cl)c2)o1)S(=O)(=O)c1ccccc1`: the “hERG current change (%, negative = inhibition) at 10uM” value was -23%.

Regarding `CC1(C)CNC(=O)C=C(c2ccccc2)C1`, the “hERG current change (%, negative = inhibition) at 10uM” value was 9.32%.

With `COc1cc2ccccc2nn1`, the “hERG current change (%, negative = inhibition) at 10uM” value turned out to be 13.1%.

With `O=C(NCCN1CCN(C(=O)c2ccc(Br)cc2)CC1)c1ccc(Br)cc1`, the “hERG current change (%, negative = inhibition) at 10uM” value is given as -71.3%.

In the case of `Cc1csc(=O)n1CCC(=O)OCC(=O)Nc1ccc(S(N)(=O)=O)cc1`, the “hERG current change (%, negative = inhibition) at 10uM” value is given as -0.642%.

For the molecule `CC(=O)N1c2ccc(C)cc2C(c2ccccc2)CC1C` (centres unmarked), the “hERG current change (%, negative = inhibition) at 10uM” value was -20.3%.

For the molecule `Cc1ccccc1CSc1nnc(CCCCCNC(=O)OC(C)(C)C)o1`, the “hERG current change (%, negative = inhibition) at 10uM” value is given as -8.59%.

As for `O=C(CN1C(=O)c2ccccc2C1=O)NCC(=O)OCC(=O)c1ccc(Br)cc1`, the “hERG current change (%, negative = inhibition) at 10uM” value is recorded as -1.61%.

`CCOC(=O)c1ccc2nc(C(F)(F)F)[nH]c(=O)c2c1`: the “hERG current change (%, negative = inhibition) at 10uM” value was found to be 7.7%.

Turning to `O=C(O)c1cccc(Nc2ccncc2[N+](=O)[O-])c1`, the “hERG current change (%, negative = inhibition) at 10uM” value stood at 15.1%.

`O=C(COC(=O)C(O)C(O)C(=O)OCC(=O)c1ccc(C(F)(F)F)cc1)c1ccc(C(F)(F)F)cc1` (centres unmarked): the “hERG current change (%, negative = inhibition) at 10uM” value came to 15.6%.

With `O=C(COC(=O)CCC(=O)c1cccs1)NC1CC1`, the “hERG current change (%, negative = inhibition) at 10uM” value is reported as 25.4%.

For `Cc1nnc(NC(=O)CSc2nnc(NC(=O)C(C)(C)C)s2)s1`, the “hERG current change (%, negative = inhibition) at 10uM” value worked out at 36.6%.

`CC1=NN(c2ccccc2)C(=O)/C1=C\c1ccc(Oc2ccc([N+](=O)[O-])cc2[N+](=O)[O-])cc1`: the “hERG current change (%, negative = inhibition) at 10uM” value stood at 12.7%.

In the case of `CC(=O)N(NC(=O)c1ccc(C)cc1)C1CC(=O)N(c2ccccc2Cl)C1=O` (centres unmarked), the “hERG current change (%, negative = inhibition) at 10uM” value is on record as -10.3%.

Take `Cc1ccc(-c2cc(C(=O)NCc3ccccn3)c3ccccc3n2)cc1C`: the “hERG current change (%, negative = inhibition) at 10uM” value is listed as -11%.

With `O=C(Nc1ccccc1C(=O)O)c1ccc(Br)o1`, the “hERG current change (%, negative = inhibition) at 10uM” value was found to be 18.2%.

`Cc1cc(=O)n(-c2ccc3ccccc3n2)[nH]1`: the “hERG current change (%, negative = inhibition) at 10uM” value is reported as 5.66%.

With `Cc1ccc(S(=O)(=O)CCC(=O)Nc2ccc(S(=O)(=O)N(C)C)cc2)cc1`, the “hERG current change (%, negative = inhibition) at 10uM” value came to 7.9%.

`CCCNC(=O)NCCc1ccncc1`: the “hERG current change (%, negative = inhibition) at 10uM” value is 7.09%.

On to `O=S(=O)(NC1CCCCC1)c1ccc(-c2csnn2)s1`, for which the “hERG current change (%, negative = inhibition) at 10uM” value is -4.29%.

`O=C(Nc1ccc(N2CCOCC2)cc1)C1CCN(S(=O)(=O)Cc2ccccc2)CC1`: the “hERG current change (%, negative = inhibition) at 10uM” value was determined as 19.2%.

For the molecule `CCOC(=O)c1ccccc1NC(=O)COC(=O)CN1C(=O)NC2(CCCC2)C1=O`, the “hERG current change (%, negative = inhibition) at 10uM” value was -26.6%.

With `CC(=O)OC(COc1ccccc1)Cn1cnc2ccccc21` (centres unmarked), the “hERG current change (%, negative = inhibition) at 10uM” value is -6.26%.

Consider `CCN(C(=O)CCc1nnc2ccc(N3CCC4(CC3)OCCO4)nn12)c1ccccc1`, for which the “hERG current change (%, negative = inhibition) at 10uM” value is on record as 10.3%.
